This note sets out measurements from patent US20130089513A1 (MEDEXGEN, published 2013).

Experiment [1] concerns the target T1, c-Mpl (TPO receptor) expressed on TF-1/c-Mpl cells (human, UniProt P40238 26-635).
T1 sequence (looked up): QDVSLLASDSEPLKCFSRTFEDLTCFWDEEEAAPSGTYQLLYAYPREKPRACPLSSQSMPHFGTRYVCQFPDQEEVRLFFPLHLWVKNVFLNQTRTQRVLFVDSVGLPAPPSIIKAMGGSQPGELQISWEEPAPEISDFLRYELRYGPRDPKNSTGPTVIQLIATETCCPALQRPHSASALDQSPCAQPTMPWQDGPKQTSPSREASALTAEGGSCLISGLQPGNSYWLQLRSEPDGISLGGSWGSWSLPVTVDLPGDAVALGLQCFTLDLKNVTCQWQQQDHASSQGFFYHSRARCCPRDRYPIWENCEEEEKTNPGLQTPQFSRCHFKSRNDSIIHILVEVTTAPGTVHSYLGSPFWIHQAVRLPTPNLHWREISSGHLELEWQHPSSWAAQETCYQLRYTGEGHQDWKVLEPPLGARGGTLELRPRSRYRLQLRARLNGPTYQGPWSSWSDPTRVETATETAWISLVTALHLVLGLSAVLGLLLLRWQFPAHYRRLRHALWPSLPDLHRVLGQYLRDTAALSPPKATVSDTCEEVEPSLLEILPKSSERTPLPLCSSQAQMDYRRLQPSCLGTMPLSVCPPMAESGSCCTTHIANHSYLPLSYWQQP
Briefly: cell-based or functional assay.

Experiment [2] addresses T2, TPO receptor-Fc fusion protein (human, UniProt P40238 26-491).
T2 construct: extracellular domain; C-terminal region of the receptor's extracellular domain fused to the N-terminal region of human IgG1 Fc; purified on Protein A from CHO supernatant; also called TPO receptor-Ig fusion protein; not shown: Fc domain of human IgG1
T2 sequence (looked up): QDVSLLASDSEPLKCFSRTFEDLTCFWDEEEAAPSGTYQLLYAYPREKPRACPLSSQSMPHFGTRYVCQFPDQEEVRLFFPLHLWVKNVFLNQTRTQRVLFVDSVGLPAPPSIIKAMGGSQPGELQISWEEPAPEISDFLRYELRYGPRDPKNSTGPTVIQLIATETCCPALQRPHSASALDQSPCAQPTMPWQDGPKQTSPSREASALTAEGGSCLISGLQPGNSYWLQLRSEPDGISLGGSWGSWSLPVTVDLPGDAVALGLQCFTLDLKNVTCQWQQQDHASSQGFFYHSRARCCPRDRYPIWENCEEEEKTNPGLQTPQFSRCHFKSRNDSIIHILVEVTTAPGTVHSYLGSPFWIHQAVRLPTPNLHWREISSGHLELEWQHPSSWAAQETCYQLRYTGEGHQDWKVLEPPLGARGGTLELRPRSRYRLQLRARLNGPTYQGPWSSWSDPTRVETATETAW
The experiment in a line: ELISA on coated TPO receptor-Fc, detection with biotinylated anti-human TPO antibody and streptavidin-HRP. For orientation: In an ELISA, binding on a coated surface is turned into a signal by an enzyme label.

Experiment [3] addresses T2, TPO receptor-Fc fusion protein. Briefly: SPR, BIAcore 3000, CM5 chip, TPO receptor-Fc captured by anti-human IgG. (SPR reads the build-up and loss of mass on a sensor chip optically.)
Experiment [4] shares this target. Briefly: SPR, BIAcore 3000, TPO receptor-Fc captured by anti-human IgG.

For orientation: EC50 (read off the curve) means the concentration at which the effect is half-maximal. Higher therefore signals lower potency in that assay. The term Kd denotes the equilibrium constant for the complex coming apart. A lower Kd goes with a tighter complex. The koff is the first-order rate constant of dissociation. A low value points to slow dissociation. In general, kon refers to the rate constant with which the complex forms. A higher kon goes with faster complex formation.

B1: TPO-[F46V] (ligand)
chain: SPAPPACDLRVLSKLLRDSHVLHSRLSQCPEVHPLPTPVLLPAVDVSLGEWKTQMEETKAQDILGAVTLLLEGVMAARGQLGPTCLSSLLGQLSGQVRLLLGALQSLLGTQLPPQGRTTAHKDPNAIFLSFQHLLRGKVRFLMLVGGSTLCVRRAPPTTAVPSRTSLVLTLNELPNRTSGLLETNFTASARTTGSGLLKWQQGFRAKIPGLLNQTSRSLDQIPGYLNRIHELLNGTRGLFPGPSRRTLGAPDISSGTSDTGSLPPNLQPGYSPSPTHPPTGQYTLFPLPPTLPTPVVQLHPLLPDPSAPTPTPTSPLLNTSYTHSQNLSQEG
notes: TPO mutein expressed in CHO-K1 cells
On to B1, for which the “The maximum activity comparison(%) (TF-1/c-Mpl cell proliferation, MTS)” value (from here on “The maximum activity comparison(%)”) in experiment [1] was 107%. The “EC50 (read off the curve)” value in experiment [2] is roughly 0.04 µg/mL.

B2: TPO-[F131V] (ligand)
chain: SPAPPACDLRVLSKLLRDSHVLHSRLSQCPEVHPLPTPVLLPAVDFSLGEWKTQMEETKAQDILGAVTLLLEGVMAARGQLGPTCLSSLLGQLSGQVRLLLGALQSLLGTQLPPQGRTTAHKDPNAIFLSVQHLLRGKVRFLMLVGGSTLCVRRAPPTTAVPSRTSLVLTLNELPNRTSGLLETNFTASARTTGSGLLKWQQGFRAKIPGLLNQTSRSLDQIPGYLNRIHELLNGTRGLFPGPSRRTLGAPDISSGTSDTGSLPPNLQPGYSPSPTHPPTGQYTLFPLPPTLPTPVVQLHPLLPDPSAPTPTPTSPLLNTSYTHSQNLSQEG
notes: as for B1
In the case of B2, the “The maximum activity comparison(%)” value in experiment [1] was found to be 119%. For the same molecule, the 50% effective concentration (EC50 (read off the curve)) in experiment [2] is roughly 0.06 µg/mL. Besides, the “resonance unit (RU)” value in experiment [3] came to 20 RU.

B3: TPO-[F141V] (ligand)
chain: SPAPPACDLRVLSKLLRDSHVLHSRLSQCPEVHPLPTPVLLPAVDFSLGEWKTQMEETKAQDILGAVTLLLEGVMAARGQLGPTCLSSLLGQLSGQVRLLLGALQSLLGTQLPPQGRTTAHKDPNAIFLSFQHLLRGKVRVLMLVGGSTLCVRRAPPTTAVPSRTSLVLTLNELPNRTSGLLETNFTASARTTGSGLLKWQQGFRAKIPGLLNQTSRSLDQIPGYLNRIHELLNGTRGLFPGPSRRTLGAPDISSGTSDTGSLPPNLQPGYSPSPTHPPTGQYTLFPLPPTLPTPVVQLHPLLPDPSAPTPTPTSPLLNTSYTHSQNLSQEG
notes: as for B1
In experiment [4], B3 registered a Kd of 3.98 nM, a koff of 0.0051 s⁻¹ and a kon of 1.28e+06 M⁻¹ s⁻¹. For the same molecule, in experiment [1], the “The maximum activity comparison(%)” value turned out to be 146%. In addition, in experiment [2], the “EC50 (read off the curve)” value is roughly 0.08 µg/mL. The “resonance unit (RU)” value in experiment [3] stood at 30 RU.

B4: TPO-[F128V] (ligand)
chain: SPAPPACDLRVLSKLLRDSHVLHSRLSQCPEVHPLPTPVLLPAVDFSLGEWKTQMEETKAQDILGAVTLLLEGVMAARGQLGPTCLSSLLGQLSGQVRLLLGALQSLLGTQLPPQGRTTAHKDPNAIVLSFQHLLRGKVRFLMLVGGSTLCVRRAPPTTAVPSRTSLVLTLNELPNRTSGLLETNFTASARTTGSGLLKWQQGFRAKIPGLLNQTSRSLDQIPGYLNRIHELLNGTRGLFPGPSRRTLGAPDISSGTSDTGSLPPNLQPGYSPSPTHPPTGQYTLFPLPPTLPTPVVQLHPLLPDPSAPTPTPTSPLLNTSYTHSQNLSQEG
notes: as for B1
Consider B4, for which, in experiment [1], the “The maximum activity comparison(%)” value was found to be 63%. In experiment [2], the “EC50 (read off the curve)” value was roughly 0.03 µg/mL.
